Data on eight molecules can be found in article PMC7321149 (Molecules, 2020).

Structures are written as SMILES. Where two headings read alike, the source gives them in different places.

Experiment in all cases: Leishmania high content assay, intracellular amastigotes in PMA-differentiated THP-1 macrophages
The test system of one test is L. amazonensis. Type of test: cell-based, Leishmania amazonensis (MHOM/BR/1977/LTB0016). Conditions: confirmatory dose-response, mean of two independent experiments, pEC50 = -log EC50 (M). The procedure: (§1) THP-1 cells were plated onto 384-well assay plates (7000 cells/well, 25 μL) in RPMI complete media containing 50 ng/mL phorbol 12-myristate 13-acetate (PMA) and incubated at 37 °C/5% CO2 for 48 h. Cells were then infected with stationary-phase promastigotes at a multiplicity of infection (MOI) of 50 by adding 25 μL RPMI (without PMA reagent), containing 1.4 × 10^7 parasites/mL. After 24 h of incubation at 37 °C (34 °C for cutaneous species), negative control-vehicle (0.5% DMSO), the positive control (10 μM amphotericin B), and compounds were added to the plate at a volume of 10 μL/well, bringing the total volume to 60 μL/well. For the primary screenings, compounds from the LOPAC library were tested at a concentration of 50 µM. […] Assay plates were incubated at 37 °C or 34 °C/5% CO2. After 96 h of compound exposure, assay plates were fixed with paraformaldehyde (PFA) by adding 30 μL of 12% PFA in PBS, pH 7.4, followed by incubation for 15 min at room temperature. Plates were then washed three times with 50 μL of PBS, pH 7.4, and stained with 10 μL/well of 5 μM Draq5 in PBS, pH 7.4, for at least two hours before imaging.
(§2) Plates were imaged in Operetta High Content Imaging System (Perkin Elmer), version 3.1, at a 20× magnification and filters optimized for far-red fluorescence (fluorescence filter: […]). A total of four images were acquired per well, which corresponded to 600–800 cells analyzed per condition. Quantitative readouts of the infection (total THP-1 cell number, total number of infected THP-1 cells, and number of parasites (spots) per infected cell) were determined by custom analysis building blocks in Columbus image analysis software (Perkin Elmer). Briefly, host nuclei and cells were segmented based on DNA staining, followed by the detection of individual parasites also based on DNA staining. Infected cells were determined as cells with one or more spots in the cytoplasmatic area. Details of the analysis workflow are described in the (Supplementary Information (Figure S4 and Table S1).
HCS data were analyzed as previously described^29. Briefly, the ratio of infected cells to the total number of cells was determined as the infection ratio (IR). The raw data for IR values was normalized to the negative (DMSO-treated infected cells) and positive (non-infected cells) controls to determine the normalized antiparasitic activity, expressed as a percentage in comparison to control wells. The cellular ratio was determined as the proportion between the host cell number in compound-treated wells and the mean cell number in infected control wells. Plates were submitted to quality control analysis using the Z’-factor^53 and only plates with Z’-factor > 0.5 were considered for further analysis. Groups of different samples were analyzed using the ANOVA test followed by Tukey’s multiple comparison test. Studies of correlation were performed using Pearson or Spearman tests. […] Dose–response data were processed with the Graphpad Prism software, version 6, using the sigmoidal dose–response (variable slope) nonlinear curve fitting function.

In another test the test system is L. braziliensis. The class given is cell-based, Leishmania braziliensis (MHOM/BR/1975/M2903). To be noted: confirmatory dose-response, mean of two independent experiments, pEC50 = -log EC50 (M). The procedure:
as §1, §2
(§3) HCS data were analyzed as previously described^29. Briefly, the ratio of infected cells to the total number of cells was determined as the infection ratio (IR). The raw data for IR values was normalized to the negative (DMSO-treated infected cells) and positive (non-infected cells) controls to determine the normalized antiparasitic activity, expressed as a percentage in comparison to control wells. The cellular ratio was determined as the proportion between the host cell number in compound-treated wells and the mean cell number in infected control wells. […] Groups of different samples were analyzed using the ANOVA test followed by Tukey’s multiple comparison test. […]

The next test relates to L. donovani. Type of test: cell-based, Leishmania donovani (MHOM/IN/1980/DD8). The procedure:
as §1, §2, §3

[1] abbreviates: THP-1, confirmatory dose-response, mean of two independent experiments, pEC50 = -log EC50 (M), read-out: pEC50 M L. d (converted).

With `Clc1ccc2c(c1)C(N1CCNCC1)=Nc1ccccc1O2` [Amoxapine], the EC50 with L. amazonensis was 3.8e-05 M; in the test with L. braziliensis, 3.09e-05 M.

In the case of `CN1[C@@H]2CC[C@H]1C[C@@H](OC(c1ccccc1)c1ccccc1)C2` [Benztropine], the EC50 is 3.24e-05 M in the test on L. amazonensis and 2.88e-05 M in the test on L. braziliensis.

In the test on L. amazonensis, `CN(C)CCCN1c2ccccc2CCc2ccc(Cl)cc21` [Clomipramine] had an EC50 of 3.63e-05 M.

For the molecule `CN1CCC(=C2c3ccccc3C=Cc3ccccc32)CC1` [Cyproheptadine], the EC50 with L. braziliensis is 4.07e-05 M.

Turning to `OCCN1CCN(CCCN2c3ccccc3Sc3ccc(C(F)(F)F)cc32)CC1` [Fluphenazine], the EC50 in the test with L. amazonensis and in the test on L. donovani (setting [1]) was 3.8e-05 M each time.

Take `CN(C)C(=O)C(CCN1CCC(O)(c2ccc(Cl)cc2)CC1)(c1ccccc1)c1ccccc1` [Loperamide]: in the test with L. donovani (THP-1, read-out: pEC50 M L. d (converted)), the EC50 is 2.69e-05 M.

For `CNCCCC12CCC(c3ccccc31)c1ccccc12` [Maprotiline], the EC50 was 3.63e-05 M with L. amazonensis, 3.16e-05 M with L. braziliensis and 2.75e-05 M in the test with L. donovani (setting [1]).

For the molecule `CSc1ccc2c(c1)N(CCC1CCCCN1C)c1ccccc1S2` (stereo not shown) [Thioridazine], in the test with L. donovani (setting [1]), the EC50 is 2.63e-05 M.
